Source: the supplement of paper PMC3334620
Over roughly 33,000 sequences, “E-score (-0.5 to 0.5)” has its median near -0.016; the highest 2% begin near 0.31. Some of the results follow.

Each sequence was assayed against Cst6 (UniProt P40535) (assay: PBM E-score (8-mer binding enrichment) (E-score (-0.5 to 0.5)); higher = stronger / more preferred TF binding; most listed sequences are background and not binding sites). Details: protein concentration: 200 nM; construct: GST-DNA-binding domain.
Method: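 Universal 'all 10-mer' protein binding microarrays (Agilent AMADID 015681) probed with GST-tagged S. cerevisiae TFs (full-length or DBD) made by in vitro transcription/translation (PURExpress), about 100-200 nM. Bound TF was detected with fluorescent anti-GST. Each ungapped 8-mer (which stands for itself and its reverse complement) is scored by the PBM enrichment score (E-score), a modified Wilcoxon-Mann-Whitney statistic from -0.5 to +0.5, computed with the Universal PBM Analysis Suite. Scale: above 0.35 generally sequence-specific binding.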

Row | Sequence | PBM E-score
1 | CGCTCGAG | 0.0728
2 | CTACTCCA | -0.239
3 | GACTGAGA | 0.00784
4 | ACTCGCCT | -0.027
5 | GCTACTTA | -0.0566
6 | ACTAACGG | -0.0532
7 | ATGGCGTA | 0.24
8 | GATAACAA | 0.166
9 | GAAGACTA | -0.0371
10 | GATGGCCC | -0.106
11 | CATGGCTC | 0.085
12 | CCCAGGGC | -0.337
13 | GGTCAAAA | 0.126
14 | CATGTGAA | -0.0897
15 | CCAATGTC | 0.0141
16 | ACCGGACC | -0.247
17 | AACAGGAT | 0.0183
18 | GGGCCAAC | -0.264
19 | CTTTGGCA | -0.23
20 | AAAAGGAA | 0.139
21 | GACTCTGC | -0.139
22 | GGAATGTA | -0.0683
23 | CTACCTAA | 0.153
24 | AGCTGGAC | -0.194
25 | AAAACTAC | 0.146

Row | Sequence | PBM E-score
26 | ATGGCTCA | -0.0125
27 | AATGTCCT | -0.118
28 | AGGTACTC | -0.181
29 | ACCTGCGG | -0.17
30 | CGCATGCC | 0.0832
31 | CACGATCA | 0.242
32 | AGCTGAAA | -0.0174
33 | AGGACTCA | -0.176
34 | AACCTGAC | 0.128
35 | AGACCTCA | 0.022
36 | CCCAACGA | -0.0437
37 | ACCTTAGT | -0.00291
38 | GACGACTC | -0.145
39 | TAAGCAGA | -0.0885
40 | CCAACGCA | 0.0742
41 | AGTCGGCG | -0.0479
42 | GAAGTTTA | 0.0898
43 | ACTCGTGC | -0.103
44 | GAGGGATC | -0.28
45 | CTCGCAGC | -0.132
46 | CGACATAA | 0.0706
47 | ACCGATGG | -0.105
48 | AGCTATAC | 0.0184
49 | GAAGTTGC | -0.12
50 | ACGTGTTG | 0.223

Row | Sequence | PBM E-score
51 | CGTCCCAG | -0.116
52 | GTAGGCCA | -0.112
53 | AGATGCTC | -0.104
54 | CAGTGGCG | -0.0803
55 | AGGAAGAC | -0.232
56 | ACACGATG | 0.128
57 | GGTATAAC | 0.0592
58 | ACGCCTCA | 0.091
59 | ATCGGCGC | 0.141
60 | GCATTAAC | 0.131
61 | AAATAAGG | 0.183
62 | AGCTCCAC | -0.301
63 | TAGCGACA | -0.0291
64 | CACCAGAG | -0.163
65 | AGTTTTAG | 0.0464
66 | GTTACTTA | 0.198
67 | GCGCCCGA | -0.123
68 | AAGACGCA | -0.0715
69 | ACCTAATA | 0.27
70 | GGACATGA | -0.0513
71 | ATCCTAAA | -0.0826
72 | ACAACTAA | 0.259
73 | GCAAGTCA | -0.00498
74 | ACTGACAA | 0.113
75 | GTGCTTAA | 0.0338

Row | Sequence | PBM E-score
76 | CCAGAAGG | -0.0896
77 | ACATTTTC | 0.209
78 | GACCTCCC | -0.4
79 | TAGGATAA | -0.00402
80 | CGCTAACC | -0.0866
81 | ATCGTCAC | 0.401
82 | TCGGGGCA | -0.302
83 | TCATCGGA | 0.217
84 | CCACAGCC | -0.308
85 | CCCAGTCC | -0.225
86 | CCCACTGA | -0.0689
87 | CACAAAGG | 0.13
88 | AGCAGACA | -0.165
89 | ACGGACAT | 0.0181
90 | AATTCAAA | 0.23
91 | ACCAAGGG | -0.135
92 | GGGTGTAA | -0.0577
93 | AGGGTGCC | -0.241
94 | GGTCGCGA | -0.0477
95 | ATAGTCAA | -0.0182
96 | GTGACATA | 0.471
97 | CTCCAGAG | -0.209
98 | CCTCCTAG | -0.121
99 | AGGACTGG | -0.203
100 | AAGCCAGA | -0.114

Row | Sequence | PBM E-score
101 | AACCTAAT | -0.0438
102 | ACTACCGA | -0.235
103 | ATTCCGCG | 0.129
104 | AATATGAA | 0.241
105 | CTGCCTGA | 0.135
106 | CAGCTCGG | -0.118
107 | ACACGAAT | 0.118
108 | GTATCGGA | -0.137
109 | GGACGCAC | -0.236
110 | GTAGAATA | 0.223
111 | TCCACGCA | -0.0245
112 | ACGTGACG | 0.451
113 | CTAGCAAC | 0.00251
114 | CACGGAAA | 0.167
115 | ATCACAAT | 0.158
116 | TAGATGGA | -0.124
117 | GAGTCCGC | -0.298
118 | TGTACAAA | 0.0598
119 | AGCTCTGC | -0.337
120 | AGCTTGCG | -0.0677
121 | AATGTAGA | -0.00645
122 | AGAGTTAG | 0.0934
123 | CTGTATAA | 0.0164
124 | ATTCATAG | 0.0473
125 | GCTTGTAC | 0.0044

Row | Sequence | PBM E-score
126 | CAATTGGC | 0.0859
127 | CCGGAGCA | -0.275
128 | ACCGAACA | 0.0409
129 | GCGCCAGA | -0.153
130 | TCCATTAA | 0.0366
131 | AAAGTGCG | 0.125
132 | GTATCCAC | -0.0793
133 | TTAGCAAA | 0.142
134 | GACATAGA | 0.143
135 | CTCAAAAG | -0.00858
136 | CGTATGCC | -0.0899
137 | TACCGCCA | 0.00379
138 | GACGGAGA | -0.11
139 | ACTAACCC | -0.0622
140 | AGTCATCG | 0.189
141 | TCGTGTAA | 0.103
142 | ATTGCCCA | -0.101
143 | CTGAGAAG | -0.26
144 | TGACGCCA | 0.466
145 | GAGCCGAC | -0.229
146 | CGCCTATA | -0.134
147 | CCTACACC | -0.262
148 | GCCTTAGA | -0.015
149 | CATATGGA | 0.0251
150 | AAATTAAT | 0.248

Row | Sequence | PBM E-score
151 | CCTATTGA | 0.0211
152 | AGACCTAT | 0.00584
153 | AAGCCCAT | -0.163
154 | AACATCAT | 0.378
155 | AAGGCCAA | -0.194
156 | CTGCCTTC | -0.237
157 | GCTCACCC | -0.225
158 | CGGGTCAG | 0.00319
159 | CGCGAAAG | 0.00353
160 | CTTACTAA | 0.104
161 | GATGAGAC | 0.0611
162 | CGTGTATA | 0.141
163 | ATAGCGCA | -0.135
164 | AAGCGAAG | -0.0837
165 | ATGTCTTG | -0.00382
166 | AGTGAATG | 0.171
167 | ACAATCAT | 0.162
168 | GCGCAAGA | 0.103
169 | TACGATCA | 0.174
170 | GACTCTTA | 0.00134
171 | CCCTGAAC | 0.108
172 | CTCTGAGA | -0.155
173 | AGGCGTCC | -0.14
174 | GGCGGAAC | -0.217
175 | CATCCAGC | -0.0585

Row | Sequence | PBM E-score
176 | CCATGGCC | -0.276
177 | GAGCTAGA | -0.171
178 | AACAAAAG | 0.179
179 | CTGTTTAC | 0.184
180 | ACTCTGCC | -0.0415
181 | ACCGAGAA | 0.109
182 | CTCCTAAC | -0.121
183 | ACGCACTG | -0.0512
184 | AAAAGACA | 0.271
185 | AATCATCA | 0.308
186 | CATGGAAA | 0.233
187 | ACAGCAGG | -0.111
188 | GAGTGGGA | -0.214
189 | CCACGCGG | -0.0273
190 | CCCATTAA | -0.144
191 | GAAGCATA | -0.0652
192 | GCTATTTA | 0.0788
193 | ATGACGGA | 0.417
194 | CCAAACAG | -0.139
195 | GAGTAGAC | -0.0464
196 | CAAAGCTC | -0.296
197 | GAGCGCTA | 0.0355
198 | GCCAGGAA | -0.0424
199 | AGTGACAT | 0.459
200 | GACCGTCC | -0.249

Row | Sequence | PBM E-score
201 | AACACGTA | 0.274
202 | AACGTAGG | -0.07
203 | GTTATCCA | -0.0365
204 | CCATAGAC | -0.152
205 | AATTCATA | 0.162
206 | CCAGTTAA | 0.175
207 | CAAGGTGA | 0.0541
208 | ATAACCGA | -0.0162
209 | GCAGTGCC | -0.14
210 | ATATGTCA | 0.404
211 | GGTCACGA | 0.0109
212 | CGGCAGAA | 0.122
213 | TGGAACCA | 0.0397
214 | CAAGTAAG | 0.0168
215 | CAGCGAGG | -0.155
216 | AAACGATT | 0.0698
217 | GCATCTGA | -0.28
218 | CCATTTGC | 0.0463
219 | ACGAACCA | 0.195
